Reference: the RNAGym collection of RNA variant scans (doi:10.7554/elife.90254)
Read counts are not given, so values of variants with three or more changes are uncertain.

B1: LINE1-mini (parent)
chain: GGCAGAGCUCAACACAGCGUGGCAAAGUGGCUGUGGCUAGACUGCC

Variants of: B1
Test: self-cleavage, relative activity (ratio to wild type); higher = more cleavage; in vitro, sequencing; the parent is a self-cleaving ribozyme

Which self-cleavage does the source give for GGCAGGGCUCAACACCGCGUGGCAAAGUGGCUGUGGAUAGACUGCC [A6G A16C C37A] here?
The self-cleavage was 0.54.

Which self-cleavage does the source give for GGCAGAACUCAAGACAUCGUGUCACAGUGACUGUGGCUAGACUGCC [G7A C13G G17U G22U A25C G30A] here?
The self-cleavage was 0.08.

Which self-cleavage does the source give for GCCAGCGCUCCACACAGCGUGGCCAAGUGGCUGUGGCUAGACUGCC [G2C A6C A11C A24C] here?
Its self-cleavage is 0.05.

With GGCAUAGAUCAACACAGCGUGGCAAAGUGGCUGUGGUUAGACUGCC [G5U C8A C37U] as the variant, how does the self-cleavage read?
Its self-cleavage is 0.31.

With GGCAGACCUCAACAAAGCGUGGCAAAGUGGCUGUGGCUGGACUGCC [G7C C15A A39G] as the variant, how does the self-cleavage read?
Its self-cleavage is 0.02.

Which self-cleavage does the source give for GGCAGAGCGCAACACAGCGUGGCAAAGUGGCUUUCGCUAGACUGCC [U9G G33U G35C] here?
The self-cleavage was 0.13.

With GGCAGAGCUCAACACAGCGUGGCAAAGUCGCUGUGUCUAGACUACC [G29C G36U G44A] as the variant, how does the self-cleavage read?
The self-cleavage was 0.23.

With GGCAGGGCUCAACACAGCUUGGCAAAGUUGCUGUGGCUAGACUGCC [A6G G19U G29U] as the variant, how does the self-cleavage read?
The self-cleavage was 0.05.

With GGCAGAGCUCCACACAGCGUGGCAAAGUGGCCGGUGUUAGACUGCC [A11C U32C U34G G35U C37U] as the variant, how does the self-cleavage read?
The self-cleavage was 0.02.

Which self-cleavage does the source give for GGCAGAGCUCAACACAGCGAGGCAAAUUGGCUUUGGCUAGACUGCC [U20A G27U G33U] here?
The self-cleavage was 0.02.

With GGCAGAGCUCAACACAGCGUGCCAAAGUGGCUGUGGCUAUACUGCA [G22C G40U C46A] as the variant, how does the self-cleavage read?
Its self-cleavage is 0.09.

With GGCAUUGCUCAACACAGCGUGGCAAAGUGGCUGUGGCUAGACUACC [G5U A6U G44A] as the variant, how does the self-cleavage read?
Its self-cleavage is 0.6.

With GGCAAAGCUCAACAGCGCGUGGGAAAGUGGCUGUGGCUAGACUGCC [G5A C15G A16C C23G] as the variant, how does the self-cleavage read?
The self-cleavage was 0.09.

For GGCAGAACUCAACACAGCGUGGCAAAGUGGCUGUAGCUAGAGUGCU [G7A G35A C42G C46U], which self-cleavage is on record?
The self-cleavage was 0.03.

For CGCAGAGCUCAACACAGCGUGGCAAAGUUUCUUUAGCCAGACUGCC [G1C G29U G30U G33U G35A U38C], which self-cleavage is on record?
The self-cleavage was 0.07.

Which self-cleavage does the source give for GGCAGAGCUCAAUAUAGCAUGGCAAAGUGGCGGUGGCUAGACUGCC [C13U C15U G19A U32G] here?
Its self-cleavage is 0.17.

With GGCAGAGACCAACACAGCGUGGGAAAGUGGCUGUCGCUAGGCUGCC [C8A U9C C23G G35C A41G] as the variant, how does the self-cleavage read?
The self-cleavage was 0.01.

With GGCCGCGCUCAACACAGCGUGGCAAAAUGGCUGUGGCUAGACUGCC [A4C A6C G27A] as the variant, how does the self-cleavage read?
Its self-cleavage is 0.04.

With GGCAGAGCUCAACACAGCGUGGCAGAGUGGCGGUGGAUAGACUGCC [A25G U32G C37A] as the variant, how does the self-cleavage read?
Its self-cleavage is 0.1.

With GGCAGAGCGCAACACAGAGUGGCAAAGUGACUGUCGCUAGACUGCC [U9G C18A G30A G35C] as the variant, how does the self-cleavage read?
The self-cleavage was 0.03.

With GGCAGGGCUCACCACAGCGUUGCAAAGUGGCUGUAGCUAGACUGCC [A6G A12C G21U G35A] as the variant, how does the self-cleavage read?
The self-cleavage was 0.02.

For UGCAAAGCUUAACACAGCGUCGCAAAGUGGCUUUGGCUAGACUGCC [G1U G5A C10U G21C G33U], which self-cleavage is on record?
The self-cleavage was 0.02.

For GCCAGAGCUCAACACAUCGUGGCAAAAUGGCUGUGGCUAGACUGCC [G2C G17U G27A], which self-cleavage is on record?
Its self-cleavage is 0.08.

With GGCAGAGCUCAGCACAGCGUAGCAAUGUGGCUGUGGCUAGACUGCC [A12G G21A A26U] as the variant, how does the self-cleavage read?
Its self-cleavage is 0.02.

Which self-cleavage does the source give for GGCAGAUCUAAACACCGCGUGGCAAAGUGGCUGUGGCUAGACUGCA [G7U C10A A16C C46A] here?
Its self-cleavage is 0.01.

With GGCUGAGCUCAACACACCGCGGCAAAGUGGCUGUGGCUAGACUGCC [A4U G17C U20C] as the variant, how does the self-cleavage read?
Its self-cleavage is 0.03.

Which self-cleavage does the source give for GGCAGAGCUAAACACAGCGUGGCACAGUGGCUGUGGCUAGCCUGCC [C10A A25C A41C] here?
The self-cleavage was 0.05.

Which self-cleavage does the source give for GGCAUAGCUCAUCACAGCGUUGCAAAGUGGAUGUGGCUAGAAUGCC [G5U A12U G21U C31A C42A] here?
The self-cleavage was 0.

Which self-cleavage does the source give for GGCAGCGCUCAACACAGCGUGCCAAAGUGGCUGUGGCUAGAGUUCC [A6C G22C C42G G44U] here?
The self-cleavage was 0.07.

For GGCAGAGCUCUAAACAGCGUGGCAAACUGGCUGUGGCUAGUCUGCC [A11U C13A G27C A41U], which self-cleavage is on record?
The self-cleavage was 0.03.

With GGCAGAGCGCCACACAGCGUGGCAAAGUGGCUGUGGCUAGAGUGCC [U9G A11C C42G] as the variant, how does the self-cleavage read?
The self-cleavage was 0.01.

With GAUAGAGCUCAACACACCGUGGAAAAGUGGCUGUGGCUAGACUGCC [G2A C3U G17C C23A] as the variant, how does the self-cleavage read?
The self-cleavage was 0.59.

For GGCAGAGCUAAACACAGCGUGACACAGUGGCUGUGGCUAGACUCCC [C10A G22A A25C G44C], which self-cleavage is on record?
Its self-cleavage is 0.

Which self-cleavage does the source give for GCCAGAGAUCAACACAGCGUCGCAAAGUGGCUAUGGCUAAACUGCC [G2C C8A G21C G33A G40A] here?
The self-cleavage was 0.09.

Which self-cleavage does the source give for GGCAGAGCUCAACACAGCCUGGCAUAGUGGCUGUGGCUAGAGUGCC [G19C A25U C42G] here?
Its self-cleavage is 0.01.

Which self-cleavage does the source give for GGCAGAGCUCAAAACAGCGUGGCAAUGUGGCUGUGGCUAGACUACC [C13A A26U G44A] here?
Its self-cleavage is 0.23.

For GGCAGAGCUUAUCAAAGCGUGGCAAAGUGGCUGUGGCUAGACUUCC [C10U A12U C15A G44U], which self-cleavage is on record?
The self-cleavage was 0.03.

For GGCCGAGCUCAACACAGGGUAGCAAAGUGGCUGUGGCUAGACAGCC [A4C C18G G21A U43A], which self-cleavage is on record?
Its self-cleavage is 0.04.

For GGCAGAUCUCAACACAGCGUGGGAAAGUGGCUGUGGCUAGACUUCC [G7U C23G G44U], which self-cleavage is on record?
Its self-cleavage is 0.59.

Which self-cleavage does the source give for GGCAAAGCUCAUCACAAGGUGGCAAAGUGGGUGUGGCUAGACUGCC [G5A A12U G17A C18G C31G] here?
Its self-cleavage is 0.

Which self-cleavage does the source give for GGCAGAGCUCAACACAGAGGGGCAAAUUGGCUGUGGCUAGACUUCA [C18A U20G G27U G44U C46A] here?
The self-cleavage was 0.34.

With GGCAGUGCUCAGCACAGCGUGCCAAAGUGGCUGUGGCUUGACAGCC [A6U A12G G22C A39U U43A] as the variant, how does the self-cleavage read?
The self-cleavage was 0.03.

For GGCAGAGCUCCACACAGCGUGGUAAAGUGGCUGUGGCUAUACAGCC [A11C C23U G40U U43A], which self-cleavage is on record?
Its self-cleavage is 0.

For UGCAGACCUCGACACAGCGUGGCAAAGUCGCUGUGGCUAGACUGCC [G1U G7C A11G G29C], which self-cleavage is on record?
The self-cleavage was 0.

Which self-cleavage does the source give for GGCAGAUCUCAACACAGCGUGACAAAGUGGCUGUGACUAGACUGCC [G7U G22A G36A] here?
The self-cleavage was 0.03.

Which self-cleavage does the source give for GGCAGAACUCAACACAGCGUGGCAAAGUGGCUAUGACUAGACUGCC [G7A G33A G36A] here?
The self-cleavage was 0.09.

For GGCAGAGCUCAACACAGUGUUGCAAAGUGGUUGUGGCUAGGCUGCC [C18U G21U C31U A41G], which self-cleavage is on record?
Its self-cleavage is 0.03.

Which self-cleavage does the source give for GGCAGAGCUCAACACAGUGUGACAAAAUGGCUGUGGCUAGACUGCC [C18U G22A G27A] here?
The self-cleavage was 1.81.

Which self-cleavage does the source give for GGCAGAGCUCAACACACCGUUGCAAAGGGGGUGUGGCUAAACUGCC [G17C G21U U28G C31G G40A] here?
Its self-cleavage is 0.02.

For GGAAGAGCUCAACAAAGCGUUGCGAAGUGGCUGUGGCUAGAUUGCC [C3A C15A G21U A24G C42U], which self-cleavage is on record?
Its self-cleavage is 0.3.

Which self-cleavage does the source give for GGCAGAGUGCAACACAGCGUGGCAAAGUUGCUGUGGCUAGACUGCC [C8U U9G G29U] here?
Its self-cleavage is 0.1.

Which self-cleavage does the source give for GGCACAGCUCAACACAGAGAGGCAAAGUGGCUGUGGCUAGACUCCC [G5C C18A U20A G44C] here?
The self-cleavage was 0.03.

Which self-cleavage does the source give for AUCAGAGCUCAACACAGCGUGGCAAAGGAGAUGUGGCUAGACUGCC [G1A G2U U28G G29A C31A] here?
The self-cleavage was 0.07.

With GGCAGAGCUCAGCACAGCGUGGCAAAUUGGCUGUGACUCGACUGCC [A12G G27U G36A A39C] as the variant, how does the self-cleavage read?
The self-cleavage was 0.02.

Which self-cleavage does the source give for GGCACAGCUCAACACAGCGUGGCAAAGUAGCUGUAGAUAGACUGCC [G5C G29A G35A C37A] here?
Its self-cleavage is 0.11.

With GGCAGAGCUCAACACAGCGAGGCAAAGUGGAUGUGGCUUGACUGCC [U20A C31A A39U] as the variant, how does the self-cleavage read?
Its self-cleavage is 0.11.
